Reference: PubChem BioAssay AID1963576 (National Center for Advancing Translational Sciences (NCATS), 2024)
The campaign covered roughly 46,000 compounds. About 60 (0.1%) were called active. Inconclusive results (about 3%) are left out. Calls come from the whole dose curve; as a rule, active = well fitted inhibition curve with a large enough effect; inconclusive = small, poorly fitted or top-dose-only effect; inactive = no such curve, though single readings can be large or run the other way. Some of the results follow.

Assay: Primary qHTS assay for Inhibitors of ovarian cancer metastasis using an organotypic tumor microenvironment (TME) model.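 For activity change, negative = inhibition: plate controls were DMSO wells for no effect and tomatine positive control wells for full effect.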 Note: nearly all actives have a fitted effect of over 65% in size.
Settings: SKOV3ip1-GFP adhesion/invasion on 3D omental model, fluorescence; series mostly up to 45.8 µM; activity change, negative = inhibition: at the top concentration
How it was run: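 qHTS, 4-pt dose (0.36-46 umol/L); SKOV3ip1-GFP, 1,200 cells/well, no FBS; primary omental fibroblast/mesothelial co-culture 48 h pre-grown; 2 h RT + 16 h 37 C; PBS wash, 4% PFA; GFP count 488/509 nm.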

outcome, inactive:
CCc1cccc(C)c1NC(=O)C(CC)n1ncn2c(cc3cc(C)ccc32)c1=O (stereo unspecified)
Cc1cccc(NC(=O)C2CCN(S(=O)(=O)c3ccc4c(c3)CCCC(=O)N4)CC2)c1
CCc1noc(-c2ccc(N(C)Cc3ccc(OC)cc3)c([N+](=O)[O-])c2)n1
CCc1ccc(Nc2cc(C(=O)NCCCN(C)c3ccccc3)c3ccccc3n2)cc1
COc1ccc(-c2cc(C(F)(F)F)nc(SCCC(=O)Nc3cccc(O)c3)n2)cc1
CSc1cccc(NC(=O)Cn2cnc(S(=O)(=O)N3CCCC3)c2)c1
CC1=C(C(=O)OCC2CCCCC2)C(c2ccc(Cl)cc2Cl)CC(=O)N1 (stereo unspecified)
CCc1ccccc1OCCSc1nnc(-c2cc(OC)c(OC)c(OC)c2)o1
Cc1cc(S(=O)(=O)NCC(c2ccc(N(C)C)cc2)N2CCOCC2)ccc1F (stereo unspecified)
Cc1ccc(CN(C(=O)COc2ccc(Cl)cc2Cl)C2CCS(=O)(=O)C2)o1 (stereo unspecified)
Clc1ccc(CNc2cc(-c3ccccc3)nc3nncn23)cc1
COc1ccc(-c2nc3sc(CCNS(=O)(=O)c4ccc(F)c(C)c4)c(C)n3n2)cc1
Cc1c(-c2ccc(Cl)cc2)c(=O)oc2c(CN3CCCC3)c(O)ccc12
Cc1noc(C)c1S(=O)(=O)N1CCCC(C(=O)Nc2ccc(C(C)C)cc2)C1 (stereo unspecified)

Activity change, negative = inhibition, inactive:
CN1CCN2c3ncccc3Cc3ccccc3C2C1 (stereo unspecified) 19.4%
COc1ccc(Cn2ccc3nc(C)c(C(=O)N4CCN(c5cc(C)ccc5C)CC4)cc3c2=O)cc1 -23.8%
O=C(O)CCc1ccc(-c2cccs2)n1CC(=O)Nc1ccccc1C(F)(F)F 2.75%
O=C(CSc1nc(-c2ccccc2)nc2c1CCCC2)c1ccc(Cl)cc1 28.6%
CCCNC(=O)C1CCC(Cn2c(=O)c3sccc3n(CC(=O)Nc3ccccc3C)c2=O)CC1 (stereo unspecified) -2.11%
CCCN(C(=O)c1sc2nc3n(c(=O)c2c1C)CCCC3)c1ccccc1C 13.6%
CC(C)N(CC[C@H](c1ccccc1)c1cc(CO)ccc1O)C(C)C 17.2%
Cc1ccc2c(c1)CC(C)N2S(=O)(=O)c1nnc(NC(=O)C(C)C)s1 (stereo unspecified) 1.03%
COc1ccc(NC(=O)Cn2cc(C(=O)C3CCCCC3)c3ccccc32)cc1 -11.8%
Cc1c(Cl)cccc1NC(=O)C(=O)NCC(c1cccnc1)N1CCN(c2ccccc2)CC1 (stereo unspecified) 30.1%
CCOc1ccc(CCNC(=O)c2sc3ncccc3c2-n2c(C)ccc2C)cc1 2.17%
COc1ccc(OC)c(NC(=O)N2CCC(N3CCN(Cc4ccc(F)cc4)C(=O)C3=O)CC2)c1 0.987%
COC(=O)c1c(NC(=O)c2cc3nc(-c4ccc(Br)cc4)cc(C(F)(F)F)n3n2)sc2c1CCCC2 -6.87%
CC(NC(=O)c1ccc2nc(Cc3ccccc3)oc2c1)c1ccccc1 (stereo unspecified) -0.919%
Cc1cc(=O)n(CC(=O)Nc2cccc([N+](=O)[O-])c2)c(-n2nc(C)cc2C)n1 3.85%
O=C(Nc1ccccc1OCc1cc(=O)n2ccccc2n1)c1ccccc1F 29.7%
CCCn1c2ccccc2c2cnn(CC(=O)NCc3cc(OC)ccc3OC)c(=O)c21 0.392%
COc1ccc(CNC(=O)CN2C(=O)CSc3ccc(S(=O)(=O)N4CCCC4)cc32)cc1 12.5%
CCCCNC(=O)CN1C(=O)COc2ccc(S(=O)(=O)N3CCCC3)cc21 -1.23%
CCc1ccccc1NC(=O)C(C)n1nc(-c2ccc(C)c(C)c2)ccc1=O (stereo unspecified) -0.0065%
O=C(C1CCN(S(=O)(=O)Cc2ccccc2)CC1)N1CCN(c2ccccc2F)CC1 4.1%
Cc1cccc(Cn2cc(C(=O)Nc3ccc(S(N)(=O)=O)cc3)ccc2=O)c1 -15.7%
COc1ccc(Cl)cc1NC(=O)N1CCC(CN2CCCCCC2)CC1 -7.93%
Cc1ccc(C)c(Nc2nc3nonc3nc2Nc2cccc(C)c2C)c1 -32.6%
CCOC(=O)c1cccc(NC(=O)C(Cc2ccccc2)NS(=O)(=O)c2cccc3nsnc23)c1 (stereo unspecified) 0.325%
COc1ccc(CNC(=O)C(=O)NCC(c2ccco2)S(=O)(=O)c2ccc(C)cc2)cc1 (stereo unspecified) -0.582%
COc1cc2nc(Nc3ccc(F)cc3)nc(N)c2cc1OC -35.5%
COC(=O)c1ccc(Cn2nnc3sc4c(c3c2=O)CCCC4)cc1 4.05%
CCn1nc(C)c2c(-c3ccccc3)cc(=O)n(C(C)C(=O)NCc3ccc(C)cc3)c21 (stereo unspecified) -6.12%
CC(=O)c1ccc(NC(=O)c2nc3ccccc3n(C)c2=O)cc1 -25.5%
O=C(CSC1=Nc2ccccc2N=C(c2ccc(F)cc2)C1)NCc1ccc(Cl)cc1 -5.51%
CCN(CC)c1ccc(NC(=O)c2cc3c(=O)n4cccc(C)c4nc3n2C)c(C)c1 -8.65%
CN(C)S(=O)(=O)c1ccc2c(c1)C(=Cc1cc3c([nH]1)CCCC3)C(=O)N2 25.9%
Cc1[nH]c(=O)[nH]c(=O)c1S(=O)(=O)N1CCN(c2cccc(Cl)c2)CC1 -3.49%
COc1ccc(/C=C/c2nc3ccccc3c(=O)n2-c2cccc(C(F)(F)F)c2)cc1 -3.4%
CCN(c1ccccc1)S(=O)(=O)c1ccc2[nH]cc(C(=O)NCc3ccc(C)cc3)c(=O)c2c1 -6.72%
N#Cc1c(Nc2cccc(F)c2)sc(C(=O)c2ccc(Cl)cc2)c1N 3.49%
O=C(Nc1cccc(C(F)(F)F)c1)Nc1nnc(N2CCCCC2)s1 1.62%
COc1ccc(S(=O)(=O)Nc2cccc(-c3ccc(N4CCCC4)nn3)c2)cc1OC -0.664%
CCCNC(=O)Cn1nc(-c2ccc(C)c(C)c2)c2cnc3ccc(F)cc3c21 2.3%
Cc1ccc(C)c(CN2C(=O)CSc3ccc(C(=O)NCCc4ccc(Cl)cc4)cc32)c1 9.65%
Cc1ccc(OCC(=O)Nc2ccc3nc(Nc4cccc(Cl)c4)cc(C)c3c2)cc1 11.2%
COc1ccccc1CNC(=O)CN1C(=O)CCn2nc(-c3ccccc3)cc21 1.93%
COc1ccc(N2CC(NC(=O)c3ccc(OC(C)C)cc3)CC2=O)cc1 (stereo unspecified) -1.12%
O=C(c1ccccc1)n1nc(-c2ccco2)nc1NCc1ccccc1Cl -1.39%
COc1ccc(N(C(=O)COc2ccccc2OC)S(=O)(=O)c2ccc(Cl)cc2)cc1 -8.46%
CO[C@H]1C=CO[C@@]2(C)Oc3c(C)c(O)c4c(O)c(c(C=NN5CCN(C)CC5)c(O)c4c3C2=O)NC(=O)C(C)=CC=C[C@H](C)[C@H](O)[C@@H](C)[C@@H](O)[C@@H](C)[C@H](OC(C)=O)[C@H]1C -5.82% [at 15.1 µM]
